Assay results: PubChem BioAssay AID588855 (National Center for Advancing Translational Sciences (NCATS), 2011)
Values joined by “and” are separate entries in the source; they are usually repeats but may differ in a detail not shown here. Equal values may be shown once. The campaign covered roughly 410,000 compounds. About 5,000 (1.2%) were called active. The shares of active, inactive and inconclusive entries below differ from those in the screen. The call rests on the fitted dose curve; in most records, active means well fitted inhibition curve with a large enough effect; inconclusive means small, poorly fitted or top-dose-only effect; inactive means no such curve, though single readings can be large or run the other way. Potencies of inconclusive entries are doubtful fits and often do not repeat.

Experiment: qHTS for Inhibitors of TGF-b; further: nearly all actives have a fitted effect of over 65% in size
Details: HepG2 CAGA-GFP TGF-b/SMAD3 reporter, GFP fluorescence, 18 h, TGF-beta stimulated, 500 pg/mL final; series mostly up to 46.1 µM; activity, negative = inhibition: at the top concentration
In short: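 Inhibition of TGF-beta-driven CAGA-GFP reporter expression in HEPG2 cells is measured by cellular GFP fluorescence after 18 h stimulation with 500 pg/mL recombinant TGF-beta in 1% FBS medium at 37 degrees C.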
On the % scale 0 is the no-effect control and ±100 the full control effect; potency means the concentration at half of the fitted maximal effect; tags describe the fitted curve by direction and shape.

Row | SMILES | activity, negative = inhibition | Potency
1 | O=C1c2ccccc2C(=O)N1c1ccc(S(=O)(=O)N2CCOCC2)cc1 | inactive: -0.298% | –
2 | Cc1ccc(NC(=O)Cc2nnc(SCC(=O)NC3CCCC3)n2C)c(C)c1 | inactive: 9.07% | –
3 | Cc1ccc(/C(N)=N/OC(=O)N2CCOCC2)cc1 | inactive: 0.888% | –
4 | CCn1c(C(=O)N2CCC(C(=O)NCCc3ccccc3)CC2)cc2sccc21 | – | inconclusive: 7.08 µM [inhibitor, full curve]
5 | Cc1c(NCc2cc(Cl)cc(Cl)c2O)c(=O)n(-c2ccccc2)n1C | – | inconclusive: 35.5 µM [inhibitor, single point]
6 | CC(=O)Nc1ccc(NC(=O)[C@H](C)NC(=O)c2ccco2)cc1 | inactive: -1.02% | –
7 | CCCCN(CC)CCNC(=O)c1cc2c(-c3ccc(Cl)cc3)nn(C)c2s1 | – | inconclusive: 20 µM [inhibitor, single point] and inconclusive: 35.5 µM [inhibitor, partial curve, poor fit]
8 | CN(CC(=O)Nc1ccccc1Oc1ccccc1)Cc1ccccc1F | – | inconclusive: 35.5 µM [inhibitor, single point]
9 | OCn1ncn(-c2ccccc2)c1=S | – | inconclusive: 6.31 µM [inhibitor, single point]
10 | CCCNC(=S)Nc1ccc(F)cc1F | inactive: -1.41% | –
11 | CCn1c(SCC(=O)c2ccc(C)cc2)nnc1-c1ccncc1 | inactive: 11.1% | –
12 | CCNc1nc(CN2CCCCC2)nc2scc(-c3ccccc3)c12 | – | inconclusive: 22.4 µM [inhibitor, single point]
13 | Cc1ccc(S(=O)(=O)c2nc(-c3ccco3)oc2SC(C)c2ccccc2)cc1 (configuration not stated) | inactive: -2.96% | –
14 | COc1ccccc1C(=O)NC(CCSC)C(=O)NCCCSc1ccccc1 (configuration not stated) | – | inconclusive: 22.4 µM [inhibitor, partial curve, poor fit]
15 | CCOC(=O)C1=C(N)n2c(s/c(=C\c3cccs3)c2=O)=C(C(=O)OCC)C1c1cccs1 (configuration not stated) | – | inconclusive: 35.5 µM [inhibitor, single point]
16 | O=C(COC(=O)C12CC3CC(CC(Cl)(C3)C1)C2)Nc1ccccc1 | inactive: -8.08% | –
17 | O=C(Cc1cccs1)Nc1cccc(-c2nc3cc4ccccc4cc3[nH]2)c1 | – | active: 11.2 µM
18 | CCN(Cc1ccc2c(c1)OCCO2)C(=O)CSc1nc(C)nc2sc(C)c(C)c12 | – | inconclusive: 25.1 µM [inhibitor, single point]
19 | O=c1cc(N2CCN(c3ccccc3)CC2)[nH]c(=O)n1-c1ccccc1 | inactive: -0.0396% | –
20 | CC(=O)Nc1ccc(SC[C@H](Cc2ccccc2)N2CC[C@@H](C(C)(C)C)CCC2=O)cc1 | – | active: 10 µM
21 | COc1ccccc1NC(C)=O | inactive: 5.6% | –
22 | Cc1ccc(C(=O)N2CCC(c3c[nH]c4ccccc34)(c3c[nH]c4ccccc34)CC2)cc1 | – | inconclusive: 5.01 µM [inhibitor, partial curve, poor fit]
